Reference: the supplement of paper PMC9174493
Some of the results follow. Single values of this set are uncertain. Values with irradiation are relative to irradiated vehicle.

Key:
A549-Dual [1] = assay: NF-kB reporter (SEAP) activity, viability-corrected, relative to vehicle (fold change vs vehicle); higher = more activation of STING-IRF / NF-kB immune response reporter
A549-Dual [2] = assay: ISRE reporter (Lucia luciferase) activity, viability-corrected, relative to vehicle (fold change vs vehicle); higher = more activation of STING-IRF / NF-kB immune response reporter
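For NF-kB reporter (SEAP) activity, viability-corrected, relative to vehicle in this document: viability correction based on the alamar blue assay, with concentrations leaving 10% survival or less dropped.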

| SMILES | NF-kB reporter (A549-Dual [1]; 0.1 µM, irradiation: 8 Gy/4 fr) | NF-kB reporter (A549-Dual [1]; 0.1 µM, irradiation: none) | NF-kB reporter (A549-Dual [1]; 0.3 µM, irradiation: 8 Gy/4 fr) | NF-kB reporter (A549-Dual [1]; 0.3 µM, irradiation: none) | NF-kB reporter (A549-Dual [1]; 1 µM, irradiation: 8 Gy/4 fr) | NF-kB reporter (A549-Dual [1]; 1 µM, irradiation: none) | NF-kB reporter (A549-Dual [1]; 3 µM, irradiation: 8 Gy/4 fr) | NF-kB reporter (A549-Dual [1]; 3 µM, irradiation: none) | NF-kB reporter (A549-Dual [1]; 10 µM, irradiation: 8 Gy/4 fr) | NF-kB reporter (A549-Dual [1]; 10 µM, irradiation: none) | ISRE reporter (A549-Dual [2]; 0.1 µM, irradiation: 8 Gy/4 fr) | ISRE reporter (A549-Dual [2]; 0.1 µM, irradiation: none) | ISRE reporter (A549-Dual [2]; 0.3 µM, irradiation: 8 Gy/4 fr) | ISRE reporter (A549-Dual [2]; 0.3 µM, irradiation: none) | ISRE reporter (A549-Dual [2]; 1 µM, irradiation: 8 Gy/4 fr) | ISRE reporter (A549-Dual [2]; 1 µM, irradiation: none) | ISRE reporter (A549-Dual [2]; 3 µM, irradiation: 8 Gy/4 fr) | ISRE reporter (A549-Dual [2]; 3 µM, irradiation: none) | ISRE reporter (A549-Dual [2]; 10 µM, irradiation: 8 Gy/4 fr) | ISRE reporter (A549-Dual [2]; 10 µM, irradiation: none) |
| --- | --- | --- | --- | --- | --- | --- | --- | --- | --- | --- | --- | --- | --- | --- | --- | --- | --- | --- | --- | --- |
| CC(=O)OC1(C(C)=O)CCC2C3C=C(Cl)C4=CC(=O)C5CC5C4(C)C3CCC21C (stereo not given) [Cyproterone Acetate] | 0.858 | 0.902 | 0.79 | 0.86 | 0.736 | 0.85 | 0.718 | 0.741 | 0.787 | 0.866 | 0.819 | 0.658 | 0.779 | 0.595 | 0.638 | 0.635 | 0.571 | 0.554 | 0.529 | 0.573 |
| CC(=O)c1c(C)c2cnc(Nc3ccc(N4CCNCC4)cn3)nc2n(C2CCCC2)c1=O.Cl | 1.08 | 1.03 | 0.982 | 1.31 | 0.962 | 1.6 | 0.983 | 1.42 | 0.872 | 1.18 | 1.03 | 1.88 | 0.776 | 1.63 | 0.724 | 2 | 1.07 | 1.97 | 1.01 | 2.5 |
| CN(C)c1nc(N(C)C)nc(N(C)C)n1 [Altretamine] | 1.06 | 1.23 | 1.2 | 1.14 | 0.937 | 0.98 | 1.08 | 0.817 | 0.908 | 0.879 | 1.04 | 1.1 | 1.44 | 1.08 | 0.985 | 0.928 | 1.16 | 0.622 | 0.9 | 0.784 |
| CN(N=O)C(=O)NC1C(O)OC(CO)C(O)C1O (stereo not given) [Streptozotocin (STZ)] | 0.774 | 1.07 | 0.873 | 1.1 | 0.717 | 0.962 | 0.847 | 0.876 | 0.795 | 0.914 | 0.806 | 1.05 | 1.02 | 1.25 | 0.761 | 0.984 | 0.914 | 0.807 | 0.989 | 0.834 |
| CC(=O)OC12COC1CC(O)C1(C)C(=O)C(O)C3=C(C)C(OC(=O)C(O)C(NC(=O)OC(C)(C)C)c4ccccc4)CC(O)(C(OC(=O)c4ccccc4)C21)C3(C)C.O.O.O (stereo not given) [Docetaxel Trihydrate] | 1.08 | 1.97 | 0.887 | 2.21 | 1.08 | 2.73 | 0.942 | 1.96 | 1.21 | 2.34 | 0.877 | 5.42 | 0.897 | 6.66 | 0.624 | 6.16 | 1.27 | 7.71 | 1.22 | 7.08 |
| CC(=O)Oc1ccccc1C(=O)O [Aspirin] | 0.973 | 0.924 | 0.896 | 0.897 | 0.879 | 1.11 | 0.933 | 0.991 | 0.911 | 0.844 | 0.881 | 0.837 | 0.914 | 0.833 | 0.902 | 0.758 | 0.882 | 0.724 | 0.977 | 0.785 |
